Experimental data published in PubChem BioAssay AID686978 (National Center for Advancing Translational Sciences (NCATS), 2013).
Screen size: about 420,000 compounds; about 64,000 (15%) were called active. The inconclusive results got no clear call from the source; some entries with a clear call stand among them for comparison. Calls follow the shape of the dose curve; as a rule, active = well fitted inhibition curve with a large enough effect; inconclusive = small, poorly fitted or top-dose-only effect; inactive = flat fitted curve, though single readings scatter. Potencies of inconclusive entries are left out as doubtful fits.

Experiment: qHTS for Inhibitors of human tyrosyl-DNA phosphodiesterase 1 (TDP1): qHTS in cells in absence of CPT; also: nearly all actives have a fitted effect of over 55% in size
Details: DT40 Tdp1-/- hTDP1 cells, no CPT, ATP luminescence, 48 h; activity change, negative = growth inhibition: at 46.2 µM (top of the series) unless noted
In short: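 No-CPT arm: Tdp1-/-;hTDP1 DT40 cells (400/well) plus compounds, incubated ≥48 hr at 37 °C. Readout CellTiter-Glo luminescence.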
% is scaled to controls: 0 for no effect and ±100 for the full control effect; potency is read from the fitted curve at half-maximal effect; tags tell the direction and shape of the fitted curve.

For `Cc1ccc(N2CC(C(=O)N3CCC4(CC3)CC(=O)c3ccccc3O4)CC2=O)cc1C` (stereo unspecified), which Potency is on record?
The Potency was active: 14.6 µM.

For `O=C(NNc1c(Cl)cc(Cl)cc1Cl)C1CCC1`, which Potency is on record?
Its Potency is “inactive”.

Which Potency does the source give for `COc1ccc(N2C(=O)NC3CC2(C)Oc2ccc(Cl)cc23)cc1OC` (stereo unspecified) here?
Its Potency is inconclusive [inhibitor, single point].

For `CN=C(NC1CCCCC1)c1ccc([N+](=O)[O-])cc1`, which Potency is on record?
Its Potency is “inactive”.

With `COc1ccc(-c2onc(C)c2C)cc1S(=O)(=O)NC1CCC(C)CC1` (stereo unspecified) as the compound, how does the Potency read?
The Potency was inconclusive [inhibitor, single point].

For `O=C(CSc1nc(C(F)(F)F)cc(=O)[nH]1)N1CCCC1`, which Potency is on record?
The Potency was “inactive”.

For `CSCCC(NC(=O)COc1ccccc1)C(=O)N(C)Cc1cccc(F)c1` (stereo unspecified), which Potency is on record?
Its Potency is inconclusive [inhibitor, single point].

For `Cc1ccc(OCC(=O)Nc2ccc(C(=O)OCc3cc(=O)n4c(C)csc4n3)cc2)cc1`, which Potency is on record?
The Potency was inconclusive [inhibitor, single point].

With `Cc1noc(C)c1C(=O)N1CCc2ccccc21` as the compound, how does the Potency read?
Its Potency is “inactive”.

For `C=CCn1c(SCC(=O)Nc2cc(C)on2)nc2sc3c(c2c1=O)CCCC3`, which Potency is on record?
The Potency was active: 9.2 µM.

Which Potency does the source give for `O=C(NCC12CC3CC(CC(C3)C1)C2)c1cc2nc(-c3ccc(F)cc3)cc(C(F)(F)F)n2n1` here?
The Potency was “inactive”.

With `Cc1cccc(NC(=O)CSc2cc(C)c3ccccc3n2)c1` as the compound, how does the Potency read?
The Potency was inconclusive [inhibitor, partial curve].

With `O=C(O)CNC(=O)c1ccc(S(=O)(=O)N2CCOCC2)cc1` as the compound, how does the Potency read?
Its Potency is “inactive”.

With `CC(C)n1c(O)c(N=Nc2ccc(Cl)c(C(=O)O)c2)c2ccccc21` as the compound, how does the Potency read?
The Potency was “inactive”.

For `O=C(Nc1cccc(S(=O)(=O)N2CCOCC2)c1)c1cccc(S(=O)(=O)N2CCCCC2)c1`, which Potency is on record?
The Potency was inconclusive [inhibitor, single point].

Which Potency does the source give for `CCNS(=O)(=O)c1ccc(NC(=S)NCc2ccco2)cc1` here?
Its Potency is inconclusive [inhibitor, single point].

With `Cc1cccc(OCC(=O)Nc2ccccc2N2CCN(C(=O)C(C)C)CC2)c1C` as the compound, how does the Potency read?
Its Potency is inconclusive [inhibitor, single point].

For `CCN(CC)S(=O)(=O)c1ccc(/C=C/C(=O)NC2CCCCC2)cc1`, which Potency is on record?
Its Potency is inconclusive [inhibitor, single point].

Which Potency does the source give for `Cc1ccccc1NC(=O)N(O)C1(C#N)CCCCC1` here?
The Potency was “inactive”.

For `CCn1c2ccccc2c2cc(N=C3SC(CC(=O)Nc4ccccc4OC)C(=O)N3C)ccc21` (stereo unspecified), which Potency is on record?
Its Potency is active: 25.9 µM.

Which Potency does the source give for `CCNC(=O)C(=O)Nc1cc2c3c(c1)CCN3C(=O)CC2` here?
Its Potency is “inactive”.

With `COC(=O)C1=C(C(=O)OC)C(C(=O)OC)C(C(=O)OC)C(C(=O)OC)(C(=O)OC)C(C(=O)OC)=C1C(=O)OC` (stereo unspecified) as the compound, how does the Potency read?
Its Potency is active: 2.59 µM.

With `CC(=O)c1ccc(-c2cnc3c(NC=O)cc(-c4ccc(C(=O)NC5CC5)cc4)cn23)cc1` as the compound, how does the Potency read?
Its Potency is active: 5.17 µM.

With `Cc1cc(C)c2c(n1)SCC(=O)N2CC(=O)Nc1ccc(Br)c(C)c1` as the compound, how does the Potency read?
The Potency was inconclusive [inhibitor, partial curve].

Which Potency does the source give for `COc1ccc(CNC(=O)C2CCN(C(=O)c3ccco3)CC2)cc1` here?
Its Potency is “inactive”.

For `O=C(CNC1CCCCC1)NCC1(c2ccccc2)CCCC1`, which Potency is on record?
Its Potency is active: 23.1 µM.

With `Cc1ccc(-n2c(=O)c3oc4ccccc4c3n(CC(=O)Nc3ccccc3)c2=O)cc1C` as the compound, how does the Potency read?
The Potency was “inactive”.

With `CCc1cccc(N=c2c([N+](=O)[O-])nn(-c3ccc(Cl)cc3)n2O)c1` as the compound, how does the Potency read?
The Potency was inconclusive [inhibitor, single point].

For `COc1ccc(NS(=O)(=O)c2cc(NC(=O)c3cncc(Br)c3)ccc2OC)cc1`, which Potency is on record?
Its Potency is inconclusive [inhibitor, single point].

Which Potency does the source give for `COc1ccc(N2CCN(C(=O)Nc3cccc(C(F)(F)F)c3)CC2)cc1` here?
The Potency was active: 18.4 µM.

Which Potency does the source give for `CCc1ccccc1NC(=O)Cc1c(C(=O)O)[nH]c2ccc(Cl)cc12` here?
The Potency was “inactive”.

Which Potency does the source give for `O=C(Nc1nc(-c2ccc(F)cc2)cs1)C1CCN(C(=O)c2ccc(F)cc2)CC1` here?
The Potency was active: 5.8 µM.

With `Cc1ccc(Cn2c(CNC(=O)c3ccccc3Br)nc3cccnc32)cc1` as the compound, how does the Potency read?
Its Potency is active: 16.4 µM.

With `CC(C)CNC(=O)C1=CC(c2ccc3c(c2)OCO3)=NS(=O)(=O)N1C` as the compound, how does the Potency read?
The Potency was “inactive”.

For `O=C(COC(=O)c1ccc(F)c(S(=O)(=O)N2CCOCC2)c1)NCCc1ccccc1`, which Potency is on record?
The Potency was “inactive”.

With `CCn1c(=O)c2sccc2n(Cc2cc(C(=O)OC)ccc2OC)c1=O` as the compound, how does the activity change, negative = growth inhibition read?
The activity change, negative = growth inhibition was inconclusive: -31.4% [inhibitor].

Which Potency does the source give for `COC(=O)c1cc(C(=O)Nc2ccc(S(=O)(=O)NC(C)(C)C)cc2)cc([N+](=O)[O-])c1` here?
Its Potency is inconclusive [inhibitor, single point].

Which Potency does the source give for `Cc1cnc(C)c(N2CCC(C(=O)NCc3ccco3)CC2)n1` here?
Its Potency is “inactive”.

For `Cc1ccc2nc(Cl)c(/C=N/NC(=O)c3ccccc3O)cc2c1`, which Potency is on record?
Its Potency is inconclusive [inhibitor, single point].

For `COc1ccc(C2CC(c3ccc(Cl)cc3)=NN2c2ccc(S(N)(=O)=O)cc2)cc1` (stereo unspecified), which Potency is on record?
The Potency was inconclusive [inhibitor, single point].

Which Potency does the source give for `O=C(CCNC(=O)c1ccc([N+](=O)[O-])cc1)Nc1cc(C(F)(F)F)ccc1N1CCOCC1` here?
Its Potency is inconclusive [inhibitor, single point].

With `CCN(CC(=O)Nc1c(F)cccc1F)C(=O)c1cnccn1` as the compound, how does the Potency read?
Its Potency is “inactive”.

With `Cc1ccc(S(=O)(=O)N2CCCCC2)cc1C(=O)NCc1ccccn1` as the compound, how does the Potency read?
The Potency was “inactive”.

With `COc1ccc(CCC(=O)Nc2sccc2C#N)cc1` as the compound, how does the Potency read?
The Potency was inconclusive [inhibitor, single point].

For `COC(=O)C1=COC(C)C2CN3CCc4c([nH]c5cc(OC)c(OC)cc45)C3CC12` (stereo unspecified), which Potency is on record?
The Potency was inconclusive [inhibitor, single point].

With `Cc1cc(C(=O)OCC(=O)Nc2cccc(S(=O)(=O)N3CCOCC3)c2)c(C)o1` as the compound, how does the Potency read?
The Potency was inconclusive [inhibitor, partial curve].

With `COc1ccc(N(Cc2cc3cccc(C)c3[nH]c2=O)S(=O)(=O)c2ccc(OC)cc2)cc1` as the compound, how does the Potency read?
Its Potency is inconclusive [inhibitor, single point].

Which Potency does the source give for `CCC/C=C/c1ccc(CN2C(CC(C)C)C(=O)N(Cc3cn(Cc4ccco4)nn3)CCS2(=O)=O)cc1` (stereo unspecified) here?
Its Potency is inconclusive [inhibitor, single point].

Which activity change, negative = growth inhibition does the source give for `Cc1cccc(C(=O)NNC(=O)C(=O)NC(C)(C)C)c1` here?
Its activity change, negative = growth inhibition is inconclusive: -31.5% [inhibitor].

Which Potency does the source give for `Fc1ccc2nncc(SCc3ccccc3Cl)c2c1` here?
The Potency was inconclusive [inhibitor, single point].

With `Cc1ccc(-n2nc3c(=O)n(CC(=O)NC(C)CCc4ccccc4)nc(C)c3c2C)cc1` (stereo unspecified) as the compound, how does the Potency read?
The Potency was active: 23.1 µM.

For `Cc1cc(Cl)ccc1NC(=O)C1COc2ccccc2O1` (stereo unspecified), which Potency is on record?
Its Potency is inconclusive [inhibitor, single point].

For `O=C(NCc1ccccc1CN1CCCC1)c1cc2cc(Cl)ccc2o1`, which Potency is on record?
The Potency was inconclusive [inhibitor, single point].

For `O=C(CCCOc1ccccc1)Nc1cccc(S(=O)(=O)N2CCCCC2)c1`, which Potency is on record?
Its Potency is inconclusive [inhibitor, single point].

With `Cn1c(CCNC(=O)c2ccco2)nc2cc(NC(=O)COc3ccc(Cl)cc3)ccc21` as the compound, how does the Potency read?
The Potency was “inactive”.

For `COc1ccc(C(=O)c2ccc(N3CCOCC3)cc2)c(OC)c1`, which Potency is on record?
Its Potency is inconclusive [inhibitor, single point].

Which Potency does the source give for `COc1ccc2nc(NC3=NCCC3)sc2c1` here?
Its Potency is “inactive”.

With `O=C(N/N=C\c1cccc(OC(=O)c2ccco2)c1)c1ccc2c(c1)OCO2` as the compound, how does the Potency read?
The Potency was inconclusive [inhibitor, partial curve].

With `COc1ccc(CN2C(=O)CSCC2(C)C(=O)NCc2ccccc2)cc1OC` (stereo unspecified) as the compound, how does the Potency read?
The Potency was inconclusive [inhibitor, single point].

With `Cc1c(C(=O)Nc2cccc([N+](=O)[O-])c2)cnn1-c1ccccc1` as the compound, how does the Potency read?
Its Potency is inconclusive [inhibitor, full curve].

For `CSc1cc(C)c(OCC(=O)Nc2ccc(NC(C)=O)cc2)c(C)c1`, which Potency is on record?
Its Potency is inconclusive [inhibitor, single point].

Which Potency does the source give for `Cc1ncoc1C(=O)NCc1nc(-c2cccc(NC(=O)c3ccccn3)c2)oc1C` here?
Its Potency is inconclusive [inhibitor, single point].

Which Potency does the source give for `Cc1ccc(Nc2cccccc2=O)cc1` here?
The Potency was inconclusive [inhibitor, single point].

With `CCOc1ccc(CCNC(=O)c2ccc(F)c(S(=O)(=O)N3CCOCC3)c2)cc1OCC` as the compound, how does the Potency read?
Its Potency is inconclusive [inhibitor, single point].

With `COc1ccc(S(=O)(=O)Oc2cccc(/C=N/N=C3/NC(=O)C(CC(=O)O)S3)c2)cc1` (stereo unspecified) as the compound, how does the Potency read?
Its Potency is inconclusive [inhibitor, single point].

For `O=C(CSc1nnc(Nc2ccccc2F)s1)Nc1cccc(S(=O)(=O)N2CCCCC2)c1`, which Potency is on record?
The Potency was inconclusive [inhibitor, single point].

With `O=C(NCc1ccccn1)c1ccc(Cl)c(S(=O)(=O)NCc2ccccc2)c1` as the compound, how does the Potency read?
The Potency was “inactive”.

With `COc1ccc(/C=C/C(=O)Nc2ccc3c(c2)OCCO3)cc1OC` as the compound, how does the Potency read?
Its Potency is inconclusive [inhibitor, single point].

Which Potency does the source give for `CC1C(=O)C(C)C(c2cc(Br)ccc2O)NC1c1cc(Br)ccc1O` (stereo unspecified) here?
Its Potency is inconclusive [inhibitor, single point].

With `O=C(C[C@H]1C(=O)N(CCc2ccccc2)C[C@@H]1Cc1ccccc1)Nc1ccccc1` as the compound, how does the Potency read?
Its Potency is active: 15.8 µM.

With `CCOC(=O)N1CCC(NC(=O)C2CCN(S(=O)(=O)c3cccc4cccnc34)CC2)CC1` as the compound, how does the Potency read?
The Potency was inconclusive [inhibitor, single point].
